Laboratory results taken from PubChem BioAssay AID485281 (National Center for Advancing Translational Sciences (NCATS), 2010).
“And” between values parts separate entries of the source, which are not always exact repeats. Equal entries are not always repeated. Screen size: about 350,000 compounds; about 260 (0.074%) were called active. Inconclusive means that the source gave no clear call. Such entries were picked first, then a sample of the others. Calls follow the shape of the dose curve; as a rule, active = well fitted inhibition curve with a large enough effect; inconclusive = small, poorly fitted or top-dose-only effect; inactive = no such curve, though single readings can be large or run the other way. Where the call is inconclusive, the potency comes from a doubtful curve fit.

target: Ferritin light chain (Equus caballus) (UniProt P02791); assay: qHTS Assay for Identification of Novel General Anesthetics; conditions: apoferritin/1-aminoanthracene competitive binding, fluorescence; activity change, negative = displacement: at 77.5 µM (top of the series); also: nearly all actives have a fitted effect of over 20% in size
UniProt P02791, sequence (P02791 whole entry, looked up): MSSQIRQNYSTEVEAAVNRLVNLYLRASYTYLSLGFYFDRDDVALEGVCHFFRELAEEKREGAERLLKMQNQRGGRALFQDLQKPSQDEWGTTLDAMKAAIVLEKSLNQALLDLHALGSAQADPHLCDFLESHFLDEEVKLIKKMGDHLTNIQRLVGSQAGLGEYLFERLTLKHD
Outline: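 Apoferritin-based anesthetic binding model; compound displacement of fluorescent 1-AMA measured as endpoint fluorescence after 10 minutes at room temperature, scaled to free-ligand and complex controls.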
% is scaled to controls: 0 for no effect and ±100 for the full control effect; potency is read from the fitted curve at half-maximal effect; tags tell the direction and shape of the fitted curve.

| SMILES | Potency | activity change, negative = displacement |
| --- | --- | --- |
| COc1cccc(NC(=O)CSC2=Nc3ccccc3C3=NC(CCC(=O)NCCc4ccccc4)C(=O)N23)c1 (stereo not drawn) | inconclusive: 35.5 µM [inhibitor, partial curve] | – |
| CCP(=S)(CC)c1ccc(N(C)C)cc1 | inconclusive: 28.2 µM [inhibitor, single point] | – |
| Cc1nn(Cc2ccccc2)c(Cl)c1C(=O)OCC(=O)N1CCCC1 | inconclusive: 17.8 µM [inhibitor, partial curve] | – |
| Cc1ccc(-c2nn(C)c(=O)c3ccccc23)cc1CNC(=O)/C=C/c1ccccc1 | inconclusive: 4.47 µM [inhibitor, full curve] | – |
| Cc1cc2c(C(C)C)c(O)c(O)c(C=O)c2c(O)c1-c1c(C)cc2c(C(C)C)c(O)c(O)c(C=O)c2c1O | inactive and inconclusive: 25.1 µM [inhibitor, partial curve] | – |
| O=C(CCn1nc(-c2ccc(Cl)cc2)ccc1=O)N1CCC2(CC1)OCCO2 | inconclusive: 25.1 µM [inhibitor, partial curve] | – |
| CN1CCN(C(=O)COc2ccc(C(C)(C)C)cc2Br)CC1 | inconclusive: 39.8 µM [inhibitor, partial curve] | – |
| CCOC(=O)c1c(C)n(Cc2ccco2)c2c1cc(O)c1ccccc12 | inconclusive: 35.5 µM [inhibitor, partial curve] | – |
| CN(C(=O)COC(=O)c1ccc([N+](=O)[O-])cc1Cl)C1CCCCC1 | inconclusive: 35.5 µM [inhibitor, partial curve, poor fit] | – |
| O=C1C(c2ccccc2)=C(N2CC2)c2ccccc21 | inconclusive: 15.8 µM [inhibitor, partial curve] | – |
| CN(C)C(Cc1ccccc1)C(=O)c1cccs1 (stereo not drawn) | inconclusive: 25.1 µM [inhibitor, partial curve] | – |
| CN(C[C@H](Cc1ccccc1)N(C[C@H](Cc1ccccc1)N(CCC(C)(C)C)N=O)N=O)N=O | inconclusive: 3.98 µM [inhibitor, full curve] | – |
| O=C(Nc1ccc2c(c1)OCO2)c1cn(Cc2ccc(F)cc2)nn1 | inconclusive: 11.2 µM [inhibitor, partial curve] | – |
| O=S(=O)(Nc1ccc2[nH]ncc2c1)c1ccccc1Cl | inconclusive: 56.2 µM [inhibitor, single point] | – |
| CCNc1nc2[nH]c(=O)c3c(c2s1)OC(N)=C(C#N)C3c1cccs1 (stereo not drawn) | inconclusive: 25.1 µM [inhibitor, single point] | – |
| c1ccc(CNc2c3c(nc4ccccc24)CCC3)cc1 | inconclusive: 12.6 µM [inhibitor, partial curve] | – |
| Cc1ccc(C(=O)C2CN(C)CC2C(=O)c2ccc(C)cc2)cc1 (stereo not drawn) | inconclusive: 44.7 µM [inhibitor, single point] | – |
| COc1ccc(N2C(=O)NC(=O)/C(=C/c3cccc(OC(=O)c4cccs4)c3)C2=O)cc1Cl | inconclusive: 50.1 µM [inhibitor, single point] | – |
| CCCCC/C=C\C/C=C\C/C=C\C/C=C\CCCC(=O)Nc1ccc(O)cc1 | inconclusive: 3.98 µM [inhibitor, full curve, poor fit] | – |
| CCCCC(=O)N/N=C/c1c(O)n(CCc2ccccc2)c(=O)[nH]c1=O | – | inactive: -2.54% |
| O=C(O)c1cccc2c1NC(C(=O)O)C1CC(Sc3ccccc3[N+](=O)[O-])C(Cl)C21 (stereo not drawn) | inconclusive: 28.2 µM [inhibitor, single point] | – |

| SMILES | Potency | activity change, negative = displacement |
| --- | --- | --- |
| CC(C)CCOP(N)(=O)Oc1ccccc1Cl (stereo not drawn) | inconclusive: 56.2 µM [inhibitor, single point] | – |
| O=c1[nH]c(=S)n(Cc2ccc(F)cc2)c(O)c1C=NCC1CCCO1 (stereo not drawn) | inconclusive: 20 µM [inhibitor, partial curve, poor fit] | – |
| Cc1ccc(O)c(C(=O)c2cc(C(=O)NCCC(C)C)c(=O)n(CCC(C)C)c2)c1 | inconclusive: 3.98 µM [inhibitor, full curve] | – |
| COC(=O)c1ccccc1NC(=O)c1cccn(Cc2cccc(Cl)c2)c1=O | – | inactive: -15.8% |
| Cc1cccc(N2C(=O)NC(=O)/C(=C\c3cnn(-c4ccccc4)c3)C2=O)c1 | inconclusive: 35.5 µM [inhibitor, single point] | – |
| CC1(C)COC(Nc2ccc(Cl)cc2)=N1 | inconclusive: 39.8 µM [inhibitor, partial curve] | – |
| C[C@@H]1C[C@H]2OC(=O)C3(CO3)[C@H]2[C@H](O)[C@]2(C)C(=O)C3OC3[C@@H]12 (stereo partly drawn) | – | inactive: 2.11% |
| Cc1ccc(Sc2ccc(C=C3C(=O)N(C)C(=O)N(C)C3=O)o2)cc1 | inconclusive: 3.55 µM [inhibitor, partial curve, poor fit] | – |
| CCC(C)(C)n1nnnc1C(c1cccs1)N1CC=C(c2ccc(F)cc2)CC1 (stereo not drawn) | inconclusive: 31.6 µM [inhibitor, partial curve] | – |
| Cn1cnc([N+](=O)[O-])c1Sc1ccc([N+](=O)[O-])cc1 | – | inactive: -23.5% |
| Cc1ccc(C(=O)Nc2nc3ccccc3n2CCN2CCCC2)cc1 | inconclusive: 35.5 µM [inhibitor, partial curve] | – |
| NC(Cc1ccccc1)c1nc2ccccc2[nH]1 (stereo not drawn) | – | inactive: 4.35% |
| CCOC(=O)C1=C(CN2CCN(c3ccc(C)cc3C)CC2)NC(=O)NC1c1ccc(OC)cc1 (stereo not drawn) | inconclusive: 8.91 µM [inhibitor, single point] | – |
| CCC(=NCc1ccco1)c1c(O)n(Cc2ccccc2)c(=O)[nH]c1=O | inconclusive: 28.2 µM [inhibitor, partial curve] | – |
| CC1(C)CSC(Nc2ccc(F)c(Cl)c2)=N1 | inconclusive: 4.47 µM [inhibitor, full curve] | – |
| COc1ccc(C(=O)C2CCCN(C3CSCCSC3)C2)c(OC)c1 (stereo not drawn) | inconclusive: 31.6 µM [inhibitor, single point] | – |
| CC(=O)Oc1c2c(c(CC=C(C)C)c3c1C(=O)C1=CC4CC5C(C)(C)OC(C/C=C(\C)C(=O)O)(C4=O)[C@]15O3)OC(C)(CCC=C(C)C)C=C2 (stereo partly drawn) | inconclusive: 11.2 µM [inhibitor, partial curve] | – |
| CCOC(=O)C(O)(c1ccc(NC(=O)c2ccc(Cl)c(Cl)c2)cc1)C(F)(F)F (stereo not drawn) | inconclusive: 50.1 µM [inhibitor, single point] | – |
| N=C1c2ccccc2CN1c1cccc([N+](=O)[O-])c1 | – | inactive: -13.3% |
| CCOC(=O)C(NC(=O)CC)(Nc1ccc(C(O)(C(=O)OCC)C(F)(F)F)cc1C)C(F)(F)F (stereo not drawn) | inconclusive: 35.5 µM [inhibitor, partial curve] | – |
| CSC(=S)NCc1c[nH]c2ccccc12 | inconclusive: 35.5 µM [inhibitor, single point] and inconclusive: 28.2 µM [inhibitor, single point] | – |

| SMILES | Potency | activity change, negative = displacement |
| --- | --- | --- |
| CCCCOc1ccc(C(C)=O)cc1Cc1c(O)[nH]c(=S)[nH]c1=O | – | inactive: -7.82% |
| C=C(C)CSc1nnc([C@@H](N)Cc2c[nH]c3ccccc23)o1 | inconclusive: 39.8 µM [inhibitor, partial curve] | – |
| COC(=O)C(O)(c1ccc(NC(=S)NC(=O)c2ccccc2)cc1)C(F)(F)F (stereo not drawn) | inconclusive: 28.2 µM [inhibitor, partial curve] | – |
| CCCCn1c(=O)c(C(=O)Nc2ccccc2S(N)(=O)=O)c(O)c2ccccc21 | inconclusive: 17.8 µM [inhibitor, partial curve] | – |
| CCCCc1ccc2[nH]cc(CCN)c2c1 | – | inactive: -19.5% |
| O=C1/C(=C/c2ccccc2Cl)N2CCC1CC2 | inconclusive: 8.91 µM [inhibitor, partial curve] | – |
| O=C1NC(=O)N(c2ccccc2)C(=O)/C1=C/c1ccc([N+](=O)[O-])s1 | inconclusive: 31.6 µM [inhibitor, partial curve] | – |
| O=C1C2CCN(CC2)C1Cc1ccc(OCCOc2ccccc2)cc1 (stereo not drawn) | inconclusive: 11.2 µM [inhibitor, full curve, poor fit] | – |
| CC(C)CS(=O)(=O)C1=NN2C(=N)/C(=C\c3ccc(OC(=O)c4ccco4)cc3)C(=O)N=C2S1 | inconclusive: 35.5 µM [inhibitor, single point] | – |
| COc1ccccc1CNC(=O)CCC1N=C2c3ccccc3N=C(SCc3cccc(Cl)c3)N2C1=O (stereo not drawn) | inconclusive: 3.55 µM [inhibitor, full curve] | – |
| N#Cc1cc2c(nc1SCC(=O)Nc1cccc(C(F)(F)F)c1)C1CCN2CC1 | inconclusive: 31.6 µM [inhibitor, single point] | – |
| O=C(Cc1ccccc1)N1CCN(C2CCCC2)CC1 | – | inactive: -6.22% |
| COC(=O)C(O)(c1ccc(NC(=O)c2cccs2)c(C)c1)C(F)(F)F (stereo not drawn) | inconclusive: 35.5 µM [inhibitor, single point] | – |
| c1ccc2c3c(ccc2c1)OCC1CONC31 (stereo not drawn) | inconclusive: 31.6 µM [inhibitor, partial curve] | – |
| CCCCC/C=C\C/C=C\C/C=C\C/C=C\CCCC(=O)NCCO | inconclusive: 28.2 µM [inhibitor, partial curve] | – |
| CSc1ccc(C(=O)C2CCCN(CCCn3cccn3)C2)cc1 (stereo not drawn) | – | inactive: -11.5% |
| CN1C(=O)C(=Cc2c(OCc3cnc(Cl)s3)ccc3ccccc23)C(=O)N(C)C1=O | inconclusive: 35.5 µM [inhibitor, partial curve] | – |
| CCOc1ccccc1Oc1coc2cc(OC(=O)N(C)C)ccc2c1=O | – | inactive: -4.43% |
| CCCCn1c(O)c(C(CC)=Nc2ccc(OC)cc2OC)c(=O)[nH]c1=O | inconclusive: 35.5 µM [inhibitor, partial curve] | – |
| O=C(O)C12C3CCCC1C32c1ccccc1 (stereo not drawn) | inconclusive: 15.8 µM [inhibitor, partial curve] | – |
| O=C(Nc1ccccn1)NC12CC3CC(CC(C3)C1)C2 | inconclusive: 7.94 µM [inhibitor, full curve] | – |
